# Article PMC4336329 (PLoS ONE, 2015)
# Hit rate of the full screen: of about 310,000 compounds, about 2,200 (0.71%) showed an effect of 50% or more. Effects have a minus sign here. Some of the results follow.
# Target: human ether-à-go-go-related gene (hERG) potassium channel (human, UniProt Q12809)
# Assay: primary screen, population patch clamp on CHO cells stably expressing hERG
# Chain of human ether-à-go-go-related gene (hERG) potassium channel (Q12809 whole entry, looked up): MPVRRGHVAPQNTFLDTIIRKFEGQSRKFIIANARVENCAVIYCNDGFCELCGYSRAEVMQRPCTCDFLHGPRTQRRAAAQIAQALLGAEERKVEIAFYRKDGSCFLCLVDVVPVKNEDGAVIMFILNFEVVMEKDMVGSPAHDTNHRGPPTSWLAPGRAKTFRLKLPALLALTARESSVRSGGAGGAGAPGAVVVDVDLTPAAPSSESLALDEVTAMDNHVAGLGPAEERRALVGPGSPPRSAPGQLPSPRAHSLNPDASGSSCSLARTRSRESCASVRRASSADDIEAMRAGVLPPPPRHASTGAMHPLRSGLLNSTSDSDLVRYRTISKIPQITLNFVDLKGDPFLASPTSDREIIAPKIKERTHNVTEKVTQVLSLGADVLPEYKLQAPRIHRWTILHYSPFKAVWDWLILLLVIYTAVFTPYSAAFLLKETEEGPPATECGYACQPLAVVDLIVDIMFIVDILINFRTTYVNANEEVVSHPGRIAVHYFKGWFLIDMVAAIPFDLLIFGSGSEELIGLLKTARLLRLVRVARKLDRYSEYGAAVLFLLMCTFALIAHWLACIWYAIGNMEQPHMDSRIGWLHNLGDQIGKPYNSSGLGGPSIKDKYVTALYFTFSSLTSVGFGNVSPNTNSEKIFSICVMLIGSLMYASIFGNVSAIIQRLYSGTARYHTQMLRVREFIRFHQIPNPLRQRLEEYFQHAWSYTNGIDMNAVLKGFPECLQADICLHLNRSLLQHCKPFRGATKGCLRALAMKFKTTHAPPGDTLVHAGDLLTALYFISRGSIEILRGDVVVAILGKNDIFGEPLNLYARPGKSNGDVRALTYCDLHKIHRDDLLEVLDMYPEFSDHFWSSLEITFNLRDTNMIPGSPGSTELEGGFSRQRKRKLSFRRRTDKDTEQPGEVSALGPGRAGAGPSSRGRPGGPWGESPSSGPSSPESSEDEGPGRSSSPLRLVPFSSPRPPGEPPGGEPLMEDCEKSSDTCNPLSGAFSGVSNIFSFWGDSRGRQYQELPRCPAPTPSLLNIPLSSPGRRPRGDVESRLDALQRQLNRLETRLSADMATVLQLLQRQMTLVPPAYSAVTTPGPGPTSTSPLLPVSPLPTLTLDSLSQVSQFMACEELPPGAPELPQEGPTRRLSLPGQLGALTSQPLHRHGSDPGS
row,SMILES,"hERG current change (%, negative = inhibition) at 1uM"
1,CC(=O)Nc1c(C(=O)c2ccccc2)oc2ccccc12,-1.57%
2,COc1cc(N)ccc1Cc1ccc(N)cc1OC,7.93%
3,COc1cccc(NC(=O)c2oc3ccccc3c2NC(C)=O)c1,4.26%
4,CC1=C(C(=O)OCC2CCCO2)C(c2ccncc2)C2=C(CC(C)(C)CC2=O)N1 (centres unmarked),1.85%
5,Cc1c(C)n(C)c2ccc(C(=O)NCCN3CCOCC3)cc12,16.3%
6,O=c1/c(=C/c2ccco2)sc2n1CN(c1cccc(Br)c1)CN=2,12.4%
7,CCc1ccc(N(C(=O)Cn2nnc(-c3ccccc3)n2)C(C(=O)NC2CCCCC2)c2ccccn2)cc1 (centres unmarked),8%
8,COc1ccc(C)cc1S(=O)(=O)N1CCN(C(=O)c2ncoc2-c2ccccc2F)CC1,14.7%
9,CCCn1c(=O)c2sccc2n2c(CCCC(=O)NCc3ccco3)nnc12,7.9%
10,Cc1ccc(NC(=O)C2CC(=O)OC23CCOC(C)(C)C3)cc1 (centres unmarked),-0.054%
11,O=C(Cn1c(=O)n(CCc2c[nH]c3ccccc23)c(=O)c2cccnc21)Nc1ccccc1F,7.99%
12,C#CCN1CCN(c2cccc(C(F)(F)F)c2)CC1,-3.97%
13,CN(Cc1ccc(F)cc1)Cc1nc(CCc2ccccc2)no1,3.55%
14,COc1ccc(Oc2nc(SC)nc3ccsc23)cc1,15.3%
15,CCOC(=O)CCC(=O)Nc1cc(S(=O)(=O)N2CCOCC2)ccc1N1CCCCC1,-3.23%
16,CC(=O)Nc1cccc(C(=O)Nc2cccc(S(=O)(=O)NCc3ccco3)c2)c1,2.38%
17,CC(=O)Nc1ccc(NC(=O)C(C)OC(=O)CCCN2C(=O)c3cccc4cccc(c34)C2=O)cc1 (centres unmarked),8.12%
18,O=C(CCC1COc2ccccc2O1)Nc1cccnc1 (centres unmarked),5.48%
19,COC(=O)CNC(=O)c1cccs1,12.5%
20,CCn1c(C)cc(O)c(C(=O)Nc2cccc(Cl)c2)c1=O,15.4%
21,CCOC(=O)N1CCC(N2Cc3cccc(C(=O)NCC4CCN(CC(C)C)C4)c3C2=O)CC1 (centres unmarked),2.3%

row,SMILES,"hERG current change (%, negative = inhibition) at 1uM"
1,COc1ccccc1NC(=O)CSc1nc2ccccc2c(=O)n1C,6.28%
2,CC(c1ccccc1)n1c(SCC(=O)N2CC(=O)Nc3ccccc32)nc2ccccc2c1=O (centres unmarked),15.3%
3,C/C(=N/NC(=O)CNC(=O)COc1cccc(C)c1)c1ccco1,9.72%
4,O=C(O)CCC(=O)Nc1ccc(Sc2ccc([N+](=O)[O-])cc2)cc1,-7.42%
5,CCCCCCC(=O)N1C/C=C\C(c2ccc(OC)cc2)N(Cc2ccc(F)cc2)C(=O)C1 (centres unmarked),1.71%
6,COc1ccc(Br)cc1CNC(=O)C1CCN(S(=O)(=O)N2CCC(C)CC2)CC1,-17.7%
7,O=C(NCC1CCN(Cc2ccc(F)cc2)CC1)Nc1cc(F)ccc1F,-29.7%
8,Cc1ccc(S(=O)(=O)CC(=O)Nc2nc3ccc(S(N)(=O)=O)cc3s2)cc1,13.2%
9,Cc1cc[n+]2c3c(cccc13)CCC2.[Cl-],14.6%
10,O=C(COC(=O)/C=C/c1cccs1)Nc1nc(-c2cccc(Br)c2)cs1,8.52%
11,COc1ccc(-c2oc3c(OC)c(OC)c(OC)c(O)c3c(=O)c2OC)cc1OC,8.33%
12,CCOC(=O)Cc1csc(NC(=O)Nc2cccc(Cl)c2)n1,13.4%
13,CC1CCN(CCc2nc3cc(NC(=O)COc4ccccc4)ccc3n2C)CC1,-33.9%
14,N#Cc1cccc2cnccc12,7.07%
15,c1ccc(Sc2nc(N3CCCCC3)nc(N3CCCCC3)n2)nc1,-2.33%
16,O=C(Nc1ccc([N+](=O)[O-])cc1)c1cc2ccccc2nc1Cl,8.25%
17,COc1ccc(C(C)NC(=O)c2ccncc2)cc1OC (centres unmarked),2.07%
18,CC(C)C[C@H](NC(=O)C1CCN(S(=O)(=O)c2ccccc2)CC1)C(=O)NCc1ccncc1,11.5%
19,COc1ccccc1CNC(=O)COC(=O)Cc1cccc(F)c1,3.85%
20,CC(=O)Nc1ccc(NC(=O)CSc2nc3ccccc3o2)cc1,11.6%
21,O=C(O)c1ccc(Br)cn1,7.76%

row,SMILES,"hERG current change (%, negative = inhibition) at 1uM"
1,COc1ccc(CC(=O)Nc2ccc(S(=O)(=O)Nc3ncccn3)cc2)cc1,12.8%
2,COc1ccc(CC(=O)OCC(=O)Nc2ccc3c(c2)OCCO3)cc1OC,18.7%
3,O=C(COC(=O)c1ccccc1NS(=O)(=O)c1cc([N+](=O)[O-])ccc1Cl)c1ccccc1,1.79%
4,Cc1ccc(N2CC(C(=O)NCCCn3ccnc3)CC2=O)cc1 (centres unmarked),4.23%
5,CN1C(=O)NC(c2ccccc2[N+](=O)[O-])C2=C1CC(C)(C)CC2=O (centres unmarked),17.7%
6,COc1ccc(-c2nc(SCC(=O)Nc3nccs3)c(-c3ccc(Cl)cc3)[nH]2)cc1,13.1%
7,CN(C)c1ccc(S(=O)(=O)NCC(=O)NCc2ccccc2)cc1[N+](=O)[O-],7.92%
8,CCCOc1ccc(C(=O)NNC(=S)NC(C)=O)cc1,4.6%
9,O=C(CSc1cccc[n+]1[O-])Nc1cc([N+](=O)[O-])ccc1Cl,11.1%
10,COC(=O)c1c(NC(=O)c2ccco2)sc2c1CCN(C(C)C)C2.Cl,-13.2%
11,COC(=O)c1ccc(N2NC(=O)/C(=C/c3cc(OC)c(OC)c(OC)c3)C2=O)cc1,14.4%
12,CN1CCN(CCNC(=O)c2cc3c(=O)n(C)c4ccccc4c3n2C)CC1,13.6%
13,CS(=O)(=O)c1ccc(C(=O)NCCN2C(=O)S/C(=C\c3cccnc3)C2=O)cc1[N+](=O)[O-],11.7%
14,Cc1ccc(OCCC(=O)Nc2ccccc2C(=O)N2CCCCC2)cc1,-3.11%
15,COc1ccc(N2CCN(C(=O)c3cc4c(s3)CCCCC4)CC2)cc1,2.23%
16,O=[N+]([O-])c1ccc(-c2nc(NCC3CCCO3)c3ccccc3n2)cc1 (centres unmarked),11.5%
17,CCC(=O)Nc1nnc(S(=O)(=O)N(CC)c2ccc(Cl)cc2)s1,9.28%
18,Cc1ccc(CN2CCN(C(=O)C3CCCO3)CC2)cc1 (centres unmarked),4.12%
19,Clc1c(CSc2nc3ccccc3o2)nc2sccn12,7.65%
20,O=C(NCCCN1CCOCC1)C(=O)NCc1ccccc1Cl,10.3%
21,COc1ccc(CCNC(=O)c2ccc(OCC(=O)N3CCOCC3)c(OC)c2)cc1OC,6.23%

row,SMILES,"hERG current change (%, negative = inhibition) at 1uM"
1,O=C(Nc1ccc2c(c1)OCCO2)C1CCCN1S(=O)(=O)c1cccc2cccnc12 (centres unmarked),11.8%
2,COc1ccc(NC(=O)CCN2CCN(S(=O)(=O)c3ccc(Br)cc3)CC2)cc1,5.76%
3,Cc1onc(-c2c(Cl)cccc2Cl)c1COC(=O)c1ccc(Cl)cc1,16.8%
4,C#CCOCCOCCOCCNc1nc(N2CCN(C(=O)[C@H](C(C)C)n3cc(CCO)nn3)CC2)nc(N2CCN(C(=O)[C@H]([C@@H](C)CC)n3cc(CCCC[NH3+])nn3)CC2)n1.[Cl-],15.9%
5,CCCCN1C(=O)NC(=O)C2(Cc3c(nc4ccccn4c3=O)N3CCc4ccccc4C32)C1=O (centres unmarked),-1.45%
6,CCOc1ccc(C2/C(=C(\O)c3cccc(OC)c3)C(=O)C(=O)N2c2cc(C)on2)cc1OC (centres unmarked),11.2%
7,Cc1nc(S(=O)(=O)c2ccc(Cl)cc2)c(N(C)C)o1,15.5%
8,CN([C@@H](C(=O)OC(C)(C)C)c1ccccc1)S(=O)(=O)c1cccc(S(=O)(=O)N(C)[C@@H](C(=O)OC(C)(C)C)c2ccccc2)c1,9.18%
9,Cc1cc(C(=O)OCC(=O)Nc2cc(S(=O)(=O)N3CCOCC3)ccc2Cl)c(C)o1,7.83%
10,Cc1ccc(CN2CCCC(C(=O)c3ccc4c(c3)OCO4)C2)cc1C (centres unmarked),-27.1%
11,Cc1ccc(CCNC(=O)c2ccc(NC3=NC4CS(=O)(=O)CC4S3)cc2)cc1 (centres unmarked),7.77%
12,COC(=O)[C@]1(C)CCC[C@@]2(C)C3CC[C@@]4(C)C[C@]3(CCC21)CC(=O)N4 (some centres unmarked),8.02%
13,Cc1ccc(-c2c(C(=O)N/N=C/C3CCCCC3)nnn2-c2nonc2N)cc1,14.1%
14,O=C(Nc1cccc(-c2nn[nH]n2)c1)c1csc2c1CCCC2,11.5%
15,CCOc1cccc(N2C(=O)CC(N(CCc3ccc(OC)c(OC)c3)C(=O)CC)C2=O)c1 (centres unmarked),13.3%
16,COCCN1C(=O)NC(=O)/C(=C\c2ccc(Br)cc2)C1=O,12.9%
17,O=S(=O)(c1cccs1)n1cnc2ccccc21,10.8%
18,COCCn1nnnc1C(c1cccs1)N1CCN(c2cc(C)ccc2C)CC1.Cl (centres unmarked),10.2%
19,COc1ccc(S(=O)(=O)N(CC(=O)NCc2ccccn2)c2ccc(Cl)cc2)cc1,8.88%
20,COc1cccc(/C(O)=C2/C(=O)C(=O)N(c3cc(C)on3)C2c2cccs2)c1 (centres unmarked),10.1%
